The list shows a part of the results. At the low end of the ranking, values are background and their order means little.

The assay addresses MAX:MAX (p21) (UniProt P61244-2). The assay is described as follows: protein-binding microarray (anti-MAX antibody). To be noted: PBM: 15 mM Tris-HCl pH 7.5, 100 mM KCl, 0.075% NP40, 7.5 mM beta-mercaptoethanol, 375 ng/ul BSA, 8 ng/ul poly(dA-dT):(dA-dT), 550 ng complex, 60 min, room …; high values mean tight binding; double strand, one strand shown; sequences stand for … in CCGGC…TTAATAGCTAAGATTACTATATCGACG
AAACACGATGTT showed a binding signal (log2 normalized fluorescence) of 3.26.

TGAAGCAGAGTA yielded a binding signal (log2 normalized fluorescence) of -0.731. Then TGAATCCTGGTA, with -0.765; and TGACTTTCCGTA, with -0.822; and TAGGACGTGGTA, with 1.63.

TGAGGGGCCGTA gave a binding signal (log2 normalized fluorescence) of -0.0149. Then TGAAGAGAGGTA, with -0.631. In the case of TGACACGCAATA it was 1.76. The sequence TGAGCTGCTGTA showed a binding signal (log2 normalized fluorescence) of -0.535.

TGACCCAGGGTA gave a binding signal (log2 normalized fluorescence) of -0.583.

TGACACAGAGTA showed a binding signal (log2 normalized fluorescence) of -0.449. In the case of TGCCACGTGGTA it was 3.42; in that of TGATTAAATGTA, -1.02; in that of TGACCGCAGGTA, 0.00405. In the case of TGAGGCGGAGTA it was -0.971. Then TGAGTCGCAGTA, with -0.657; and TGAGATTTCGTA, with -1.43; and TGAAGGTCCGTA, with -0.587. TGAGGTTGTGTA showed a binding signal (log2 normalized fluorescence) of -0.704.

In turn, TGACCGGGCGTA showed a binding signal (log2 normalized fluorescence) of -0.448. Then CGACCTTAAGGC, with -0.248; and TGACAAGGTGTA, with 0.739. Then TGAAGTACACTT, with -0.17. In the case of TGACACGTGCTT it was 3.34; in that of TGAGTCAAGGTA, -0.848. TGAAGATAAGTA yielded a binding signal (log2 normalized fluorescence) of -0.873. Then TGATTACATGTA, with 0.327; and TGACTGTGTGTA, with 0.158; and TGAAAGTTGGTA, with -1.08. Then CGACACGTTGTT, with 3.13; and TGACACGTGCGA, with 3.02. Then TGATCACTAGTA, with -0.29; and TGACACATCGTA, with 0.536. Consider TGACGGTGCGTA, for which the binding signal (log2 normalized fluorescence) came out at 0.45. The sequence TGACACGTGTGG yielded a binding signal (log2 normalized fluorescence) of 3.39. On to AGAAACGCGGTA, for which the binding signal (log2 normalized fluorescence) worked out at 1.99. In the case of TGATTTACGGTA it was -0.917; in that of TGAACAAGGGTA, -0.416; in that of TGACAAGCGGTA, -0.214. Then TGACCCGACGTA, with -0.294; and TGAATTTAGGTA, with -1.2; and TGATAAGGTGTA, with -0.569.

For TGAACGCTAGTA, the binding signal (log2 normalized fluorescence) was -0.36. Then TAACACGTGGTT, with 3.27; and TGACGCCAAGTA, with -0.36. In turn, TGAGTGGGCGTA displayed a binding signal (log2 normalized fluorescence) of 0.177. In the case of TGAAACATCGTA it was -0.242. Then TGATGCCGTGTA, with 0.348; and TGAGCAAGCGTA, with -0.429. Then TGATTATGCGTA, with -0.486. The sequence TGAAAGTGTGTA came in with a binding signal (log2 normalized fluorescence) of 0.763. In the case of TGACACGTCAAA it was 1.08; in that of TGATCTTTAGTA, -1.24. The sequence TGAATTCGAGTA displayed a binding signal (log2 normalized fluorescence) of -0.99.

The sequence TGACACGTGCCT displayed a binding signal (log2 normalized fluorescence) of 3.18.

In turn, TAGCACGTGGCA returned a binding signal (log2 normalized fluorescence) of 3.24. Then TGATCGATGGTA, with -0.503; and TGACTAGGAGTA, with -0.548; and TGAAAACATGTA, with 1.71.

Take TGAAACAAAGTA: the binding signal (log2 normalized fluorescence) is -0.719. TGAACGATAGTA came in with a binding signal (log2 normalized fluorescence) of -0.758. Then TGAGTCGCTGTA, with -1.01; and TGAGGGAGGGTA, with 0.433; and TGAGTTATAGTA, with -1.04.

TGAGTCATGGTA: the binding signal (log2 normalized fluorescence) was determined as 0.473. In the case of TGACACGTAGTA it was 1.19. In the case of TGAGGATTGGTA it was -0.564. In the case of TGACCAAGGGTA it was -0.538; in that of TGACCTGTGGTA, 0.594. As to TGCCAGGTGGTA, the binding signal (log2 normalized fluorescence) worked out at 2.89. As for TGACTCGCGGTA, the binding signal (log2 normalized fluorescence) worked out at 0.809.

TGACCTGGTGTA showed a binding signal (log2 normalized fluorescence) of 0.504. Then TGATGAGGTGTA, with -0.175. Then TGAGTCGTCGTA, with -1.07; and TGACTCTTTGTA, with -0.868.

For the sequence TGAAATAAAGTA, the binding signal (log2 normalized fluorescence) was -0.877.

Turning to TGACCAGGAGTA, the binding signal (log2 normalized fluorescence) amounted to 0.00123.

Turning to TGAATAATTGTA, the binding signal (log2 normalized fluorescence) is -1.14. Then TGAATACATGTA, with 0.485; and TGACTAGATGTA, with -0.59. Then TCAAACGTGGTA, with 3.03; and TGACACGCTATA, with 2.77.

TCACACGAGGTT had a binding signal (log2 normalized fluorescence) of 3.32. Then TGACCATTCGTA, with 0.158; and TGAACGGCTGTA, with -0.4; and TGATGGGCCGTA, with -0.215.

Take TGAATCGGGGTA: the binding signal (log2 normalized fluorescence) is -0.384. In turn, TGAAGTAACGTA returned a binding signal (log2 normalized fluorescence) of -0.536. Then TGAGTCGGAGTA, with -1.18. In the case of TGAACCTGGGTT it was -0.488. Regarding TGAGCACTTGTA, the binding signal (log2 normalized fluorescence) was -0.125. On to TGCTGCGTGGTA, for which the binding signal (log2 normalized fluorescence) stood at 2.49. In the case of TGATTAAAAGTA it was -1.12; in that of TGAACGCTTGTA, 0.08. In turn, TGACACTGTGTA returned a binding signal (log2 normalized fluorescence) of 0.343. In the case of TGAGAACCTGTA it was -0.248. Then TGATAGGTGGTA, with -0.482; and TGATGGAGTGTA, with -0.0719; and TTAAAGGAGCAC, with -0.212. Then TGATGGACGGTA, with -0.228; and TGAATTAGCGTA, with -0.761.

TGAGGACCCGTA yielded a binding signal (log2 normalized fluorescence) of -0.458. As to TGATTTCTGGTA, the binding signal (log2 normalized fluorescence) was -1.27. In turn, ATTCACGTGGTA registered a binding signal (log2 normalized fluorescence) of 3.26. Then TGACCTGTTGTA, with 0.121. In the case of TCCCACATGGTA it was 3. Then TGAATAATCGTA, with -1.07; and TGAACTTCCGTA, with -0.672; and TGAGAAGTTGTA, with -1.17. The sequence TGAGTGACTGTA returned a binding signal (log2 normalized fluorescence) of -0.0764. In the case of TGATAGAACGTA it was -0.81; in that of TGATAGAAGGTA, -0.886; in that of TGAGCGATCGTA, -0.922. Then CTGCACGTGGTA, with 3.26; and TGATGTTGGGTA, with -0.295.

As to TGAATAGTAGTA, the binding signal (log2 normalized fluorescence) is -0.888. In turn, CGACATGTAGTA returned a binding signal (log2 normalized fluorescence) of 2.04. In the case of TGAAGCCCAGTA it was -0.868; in that of TGATAAAGAGTA, -1.04; in that of TGAACCTGGGTA, -0.174. In the case of TGAAGAGGCGTA it was -0.839. Then TGAACCCCAGTA, with -0.421.

Consider TGATAAATCGTA, for which the binding signal (log2 normalized fluorescence) was -1.06.

AGACCCCTGGTA gave a binding signal (log2 normalized fluorescence) of 0.429. In the case of TGTTACGGGGTA it was -0.292. Then TGACGATTGGTA, with -0.87. Then TGATTCTGCGTA, with -1.15; and TGACACGTACAA, with 1.23. The sequence TGAGAGGGCGTA gave a binding signal (log2 normalized fluorescence) of -0.569. In the case of TGATGCATGGTA it was 2.17; in that of TGAGTCTTAGTA, -0.566; in that of TGCCCCGTGGTA, 2.88. TGACCATATGTA returned a binding signal (log2 normalized fluorescence) of 2.1.

TGACGTAGTGTA yielded a binding signal (log2 normalized fluorescence) of -0.527. Then TCGCACGTGGAA, with 3.31; and TGAGATCACGTA, with 0.425.

In turn, TGAGCGGGAGTA came in with a binding signal (log2 normalized fluorescence) of -0.667.

CGACACATGGTT returned a binding signal (log2 normalized fluorescence) of 3.32. In the case of TGAATCTTGGTA it was -0.911; in that of TGACTTCGCGTA, -0.7; in that of TGACACGAAGTA, 0.881.

As to TGACGTTGTGTA, the binding signal (log2 normalized fluorescence) was 0.0703. In the case of TGAATTCACGTA it was 0.205; in that of TGACACGTGCTG, 3. Then TGACTGTATGTA, with -0.127; and TGAATGGGAGTA, with 0.156. Then TGAATCATGGTA, with 1.06; and TGAACGCACGTA, with 1.14. As for TGACTCCTTGTA, the binding signal (log2 normalized fluorescence) was -0.617. Regarding TGACACTGCGTA, the binding signal (log2 normalized fluorescence) was -0.0944. In the case of TGACGGGCGGTA it was -0.202; in that of TGAGTCGGGGTA, -0.578; in that of TTTCACGTAGTA, 0.599. Then TGATCGAACGTA, with -1.01.

Turning to TGACCGATTGTA, the binding signal (log2 normalized fluorescence) is -0.596.

Regarding TGAGGGCCGGTA, the binding signal (log2 normalized fluorescence) is -1.01.

TGAGCAGACGTA: the binding signal (log2 normalized fluorescence) was -0.339. In turn, TGACATTCAGTA came in with a binding signal (log2 normalized fluorescence) of 0.265. Then TGACTTTTTGTA, with -0.87; and TGACGAGTAGTA, with -0.708; and CTATTTGGACCC, with -1.69.

As for CTCCACGTGGTA, the binding signal (log2 normalized fluorescence) amounted to 2.94.

Sequence TGACCCCAGGTA yielded a binding signal (log2 normalized fluorescence) of -0.103.

As for TGACGTGCTGTA, the binding signal (log2 normalized fluorescence) turned out to be 1.65. Then TGAACTGATGTA, with -0.133; and TGATGGCAGGTA, with 0.226.

In turn, TGAAAAGGAGTA gave a binding signal (log2 normalized fluorescence) of -0.541. In the case of TGACCTGAGGTA it was 0.0241.

Regarding TGACGGACAGTA, the binding signal (log2 normalized fluorescence) was -0.52. Sequence TGACACGTCGCC returned a binding signal (log2 normalized fluorescence) of 2.12. In the case of TAACACGTGCTT it was 3.33; in that of TGATGCGCTGTA, 0.112; in that of TGAGCAACCGTA, -0.743. In the case of TGACACGTTCTA it was 2.94; in that of TGAAAGGTGGTA, 0.543.

For the origin of these results see PMC5515408.
